Results published in the supplement of paper PMC8728848.
Some of the results follow.

What was measured:
Assay in all cases: glycan array binding signal (z-score within array); higher = stronger binding
Conditions in all cases: glycan notation: IUPAC condensed, linker removed
[1] = biological target: Neu5Ac(a2-3)Gal(b1-4)GlcNAc(b1-2)[Neu5Ac(a2-3)Gal(b1-4)GlcNAc(b1-4)]Man(a1-3)[GlcNAc(b1-4)][Neu5Ac(a2-3)Gal(b1-4)GlcNAc(b1-2)[Neu5Ac(a2-3)Gal(b1-4)GlcNAc(b1-6)]Man(a1-6)]Man(b1-4)GlcNAc(b1-4)GlcNAc
In short: (§1)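 The binding signal is a Z-score computed within each array. Data were drawn from 3228 arrays in the Consortium for Functional Glycomics database, restricted to those with a known protein sequence. Scores were averaged over arrays of the same protein sequence at different concentrations or buffers, and over linkers, and negative values can be taken as non-binding.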

[2] = biological target: Neu5Ac(a2-3)Gal(b1-4)GlcNAc(b1-2)[Neu5Ac(a2-3)Gal(b1-4)GlcNAc(b1-4)]Man(a1-3)[GlcNAc(b1-4)][Neu5Ac(a2-3)Gal(b1-4)GlcNAc(b1-4)Man(a1-6)]Man(b1-4)GlcNAc(b1-4)GlcNAc
In short: as §1

[3] = biological target: Neu5Ac(a2-3)Gal(b1-4)GlcNAc(b1-2)[Neu5Ac(a2-3)Gal(b1-4)GlcNAc(b1-6)]Man(a1-6)[Neu5Ac(a2-3)Gal(b1-4)GlcNAc(b1-2)Man(a1-3)][GlcNAc(b1-4)]Man(b1-4)GlcNAc(b1-4)GlcNAc
In short: as §1

[4] = biological target: Neu5Ac(a2-3)Gal(b1-4)GlcNAc(b1-3)Gal
In short: as §1

[5] = biological target: Neu5Ac(a2-3)Gal(b1-4)GlcNAc(b1-3)Gal(b1-3)GlcNAc
In short: as §1

[6] = biological target: Neu5Ac(a2-3)Gal(b1-4)GlcNAc(b1-3)Gal(b1-4)GlcNAc
In short: as §1

[7] = biological target: Neu5Ac(a2-3)Gal(b1-4)GlcNAc(b1-3)Gal(b1-4)GlcNAc(b1-2)Man(a1-3)[Neu5Ac(a2-3)Gal(b1-4)GlcNAc(b1-3)Gal(b1-4)GlcNAc(b1-2)Man(a1-6)]Man(b1-4)GlcNAc(b1-4)GlcNAc
In short: as §1

[8] = biological target: Neu5Ac(a2-3)Gal(b1-4)GlcNAc(b1-3)Gal(b1-4)GlcNAc(b1-3)Gal(b1-4)GlcNAc
In short: as §1

[9] = biological target: Neu5Ac(a2-3)Gal(b1-4)GlcNAc(b1-3)Gal(b1-4)GlcNAc(b1-3)Gal(b1-4)GlcNAc(b1-2)Man(a1-3)[Neu5Ac(a2-3)Gal(b1-4)GlcNAc(b1-3)Gal(b1-4)GlcNAc(b1-3)Gal(b1-4)GlcNAc(b1-2)Man(a1-6)]GalNAc
In short: as §1

[10] = biological target: Neu5Ac(a2-3)Gal(b1-4)GlcNAc(b1-3)Gal(b1-4)GlcNAc(b1-3)GalNAc
In short: as §1

[11] = biological target: Neu5Ac(a2-3)Gal(b1-4)GlcNAc(b1-3)Gal(b1-4)GlcNAc(b1-3)[Neu5Ac(a2-3)Gal(b1-4)GlcNAc(b1-3)Gal(b1-4)GlcNAc(b1-6)]GalNAc
In short: as §1

[12] = biological target: Neu5Ac(a2-3)Gal(b1-4)GlcNAc(b1-3)Gal(b1-4)GlcNAc(b1-6)[Gal(b1-3)]GalNAc
In short: as §1

[13] = biological target: Neu5Ac(a2-3)Gal(b1-4)GlcNAc(b1-3)Gal(b1-4)[Fuc(a1-3)]GlcNAc
In short: as §1

[14] = biological target: Neu5Ac(a2-3)Gal(b1-4)GlcNAc(b1-3)GalNAc
In short: as §1

[15] = biological target: Neu5Ac(a2-3)Gal(b1-4)GlcNAc(b1-3)[Neu5Ac(a2-3)Gal(b1-4)GlcNAc(b1-6)]GalNAc
In short: as §1

[16] = biological target: Neu5Ac(a2-3)Gal(b1-4)GlcNAc(b1-6)GalNAc
In short: as §1

[17] = biological target: Neu5Ac(a2-3)Gal(b1-4)GlcNAc(b1-6)[Gal(b1-3)]GalNAc
In short: as §1

[18] = biological target: Neu5Ac(a2-3)Gal(b1-4)GlcNAc(b1-6)[Neu5Ac(a2-3)Gal(b1-3)]GalNAc
In short: as §1

[19] = biological target: Neu5Ac(a2-3)Gal(b1-4)GlcNAc6S
In short: as §1

[20] = biological target: Neu5Ac(a2-3)Gal(b1-4)[Fuc(a1-3)]GlcNAc
In short: as §1

[21] = biological target: Neu5Ac(a2-3)Gal(b1-4)[Fuc(a1-3)]GlcNAc(b1-2)Man
In short: as §1

[22] = biological target: Neu5Ac(a2-3)Gal(b1-4)[Fuc(a1-3)]GlcNAc(b1-3)Gal
In short: as §1

B1: DrGRIFIN (Danio rerio), Q6DGJ1 (protein)
chain: MTLRFEASCPDGLCPGWSVILKGETPPEASKFEINFLCDRDDRVAFHFNPRFTESDIICNSYMANRWGQEERCNHFPLGVEEPFQIEIYSDNDHFHVYIDKAKVMQYKHRVEDLKTITKLQVVNDVKISSLEITKKLFY
Q: What does the source list for B1?
A: glycan array binding signal (z-score) [1]: -0.008; glycan array binding signal (z-score) [2]: -0.145; glycan array binding signal (z-score) [3]: -0.163; glycan array binding signal (z-score) [4]: -0.158; glycan array binding signal (z-score) [5]: -0.183; glycan array binding signal (z-score) [6]: -0.177; glycan array binding signal (z-score) [7]: -0.127; glycan array binding signal (z-score) [8]: -0.196; glycan array binding signal (z-score) [9]: -0.172; glycan array binding signal (z-score) [10]: -0.198; glycan array binding signal (z-score) [11]: -0.112; glycan array binding signal (z-score) [12]: -0.206; glycan array binding signal (z-score) [13]: -0.074; glycan array binding signal (z-score) [14]: -0.151; glycan array binding signal (z-score) [15]: -0.126; glycan array binding signal (z-score) [16]: -0.092; glycan array binding signal (z-score) [17]: -0.11; glycan array binding signal (z-score) [18]: -0.186; glycan array binding signal (z-score) [19]: -0.145; glycan array binding signal (z-score) [20]: -0.161; glycan array binding signal (z-score) [21]: -0.201; glycan array binding signal (z-score) [22]: -0.12
